Substitutions are numbered along the chain they refer to; changes in the protein carry UniProt numbers. This is one part of the list.
T1: RBFOX1 RRM RbFoxmut (Fox-RRM*) (Homo sapiens, UniProt Q9NWB1 109-208, R118D;E147R;N151S;E152T)
T1 sequence: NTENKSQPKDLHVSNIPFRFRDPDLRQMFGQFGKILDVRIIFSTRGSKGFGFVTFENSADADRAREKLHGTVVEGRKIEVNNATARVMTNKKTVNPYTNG

B1: AGAUGAC (DNA:RNA)
RNA: GGGAGACCGGAAUUCAGAUUGUCCAGAUGACUUAAAUCCCGUCGUAGCCACCA
DNA 1: CAATCTGAATTCCGGTCTCCC
DNA 2: TGGTGGCTACGACGGGATT
B2: CGUCCUG (DNA:RNA)
RNA: B1 RNA with A25C, A27U, U28C, G29C, A30U, C31G
DNA 1: CAATCTGAATTCCGGTCTCCC
DNA 2: TGGTGGCTACGACGGGATT
B3: GGGUGCA (DNA:RNA)
RNA: B1 RNA with A25G, A27G, A30C, C31A
DNA 1: CAATCTGAATTCCGGTCTCCC
DNA 2: TGGTGGCTACGACGGGATT
B4: CGUCGAA (DNA:RNA)
RNA: B1 RNA with A25C, A27U, U28C, C31A
DNA 1: CAATCTGAATTCCGGTCTCCC
DNA 2: TGGTGGCTACGACGGGATT
B5: AUUAGUA (DNA:RNA)
RNA: B1 RNA with G26U, A27U, U28A, A30U, C31A
DNA 1: CAATCTGAATTCCGGTCTCCC
DNA 2: TGGTGGCTACGACGGGATT
B6: AGAUCAU (DNA:RNA)
RNA: B1 RNA with G29C, C31U
DNA 1: CAATCTGAATTCCGGTCTCCC
DNA 2: TGGTGGCTACGACGGGATT
B7: GUUGUGU (DNA:RNA)
RNA: GGGAGACCGGAAUUCAGAUUGUCCGUUGUGUUUAAAUCCCGUCGUAGCCACCA
DNA 1: CAATCTGAATTCCGGTCTCCC
DNA 2: TGGTGGCTACGACGGGATT
B8: UAGUGUU (DNA:RNA)
RNA: B1 RNA with A25U, G26A, A27G, A30U, C31U
DNA 1: CAATCTGAATTCCGGTCTCCC
DNA 2: TGGTGGCTACGACGGGATT
B9: CAGAGGA (DNA:RNA)
RNA: B1 RNA with A25C, G26A, A27G, U28A, A30G, C31A
DNA 1: CAATCTGAATTCCGGTCTCCC
DNA 2: TGGTGGCTACGACGGGATT
B10: AAAAUGU (DNA:RNA)
RNA: B7 RNA with G25A, U26A, U27A, G28A
DNA 1: CAATCTGAATTCCGGTCTCCC
DNA 2: TGGTGGCTACGACGGGATT
B11: UGGACAU (DNA:RNA)
RNA: B1 RNA with A25U, A27G, U28A, G29C, C31U
DNA 1: CAATCTGAATTCCGGTCTCCC
DNA 2: TGGTGGCTACGACGGGATT
B12: ACUUAUG (DNA:RNA)
RNA: B1 RNA with G26C, A27U, G29A, A30U, C31G
DNA 1: CAATCTGAATTCCGGTCTCCC
DNA 2: TGGTGGCTACGACGGGATT
B13: CACGCGC (DNA:RNA)
RNA: B7 RNA with G25C, U26A, U27C, U29C, U31C
DNA 1: CAATCTGAATTCCGGTCTCCC
DNA 2: TGGTGGCTACGACGGGATT
B14: CCCUUGC (DNA:RNA)
RNA: B1 RNA with A25C, G26C, A27C, G29U, A30G
DNA 1: CAATCTGAATTCCGGTCTCCC
DNA 2: TGGTGGCTACGACGGGATT
B15: AGUUCUC (DNA:RNA)
RNA: B1 RNA with A27U, G29C, A30U
DNA 1: CAATCTGAATTCCGGTCTCCC
DNA 2: TGGTGGCTACGACGGGATT
B16: AUUCAAU (DNA:RNA)
RNA: B7 RNA with G25A, G28C, U29A, G30A
DNA 1: CAATCTGAATTCCGGTCTCCC
DNA 2: TGGTGGCTACGACGGGATT
B17: CGGGGCU (DNA:RNA)
RNA: B1 RNA with A25C, A27G, U28G, A30C, C31U
DNA 1: CAATCTGAATTCCGGTCTCCC
DNA 2: TGGTGGCTACGACGGGATT
B18: AACCGCG (DNA:RNA)
RNA: B1 RNA with G26A, A27C, U28C, A30C, C31G
DNA 1: CAATCTGAATTCCGGTCTCCC
DNA 2: TGGTGGCTACGACGGGATT
B19: ACUCGAU (DNA:RNA)
RNA: B1 RNA with G26C, A27U, U28C, C31U
DNA 1: CAATCTGAATTCCGGTCTCCC
DNA 2: TGGTGGCTACGACGGGATT
B20: GCCAACU (DNA:RNA)
RNA: B7 RNA with U26C, U27C, G28A, U29A, G30C
DNA 1: CAATCTGAATTCCGGTCTCCC
DNA 2: TGGTGGCTACGACGGGATT
B21: AGGGGCU (DNA:RNA)
RNA: B1 RNA with A27G, U28G, A30C, C31U
DNA 1: CAATCTGAATTCCGGTCTCCC
DNA 2: TGGTGGCTACGACGGGATT
B22: ACUAUGG (DNA:RNA)
RNA: B7 RNA with G25A, U26C, G28A, U31G
DNA 1: CAATCTGAATTCCGGTCTCCC
DNA 2: TGGTGGCTACGACGGGATT
B23: UUGACCG (DNA:RNA)
RNA: B7 RNA with G25U, U27G, G28A, U29C, G30C, U31G
DNA 1: CAATCTGAATTCCGGTCTCCC
DNA 2: TGGTGGCTACGACGGGATT
B24: GACAAGC (DNA:RNA)
RNA: B7 RNA with U26A, U27C, G28A, U29A, U31C
DNA 1: CAATCTGAATTCCGGTCTCCC
DNA 2: TGGTGGCTACGACGGGATT
B25: UAGAUAC (DNA:RNA)
RNA: B1 RNA with A25U, G26A, A27G, U28A, G29U
DNA 1: CAATCTGAATTCCGGTCTCCC
DNA 2: TGGTGGCTACGACGGGATT
B26: AUUUUUG (DNA:RNA)
RNA: B7 RNA with G25A, G28U, G30U, U31G
DNA 1: CAATCTGAATTCCGGTCTCCC
DNA 2: TGGTGGCTACGACGGGATT
B27: GAGCAUU (DNA:RNA)
RNA: B7 RNA with U26A, U27G, G28C, U29A, G30U
DNA 1: CAATCTGAATTCCGGTCTCCC
DNA 2: TGGTGGCTACGACGGGATT
B28: CGGACGA (DNA:RNA)
RNA: B1 RNA with A25C, A27G, U28A, G29C, A30G, C31A
DNA 1: CAATCTGAATTCCGGTCTCCC
DNA 2: TGGTGGCTACGACGGGATT
B29: GCAAUCU (DNA:RNA)
RNA: B7 RNA with U26C, U27A, G28A, G30C
DNA 1: CAATCTGAATTCCGGTCTCCC
DNA 2: TGGTGGCTACGACGGGATT
B30: UCCUGAU (DNA:RNA)
RNA: B1 RNA with A25U, G26C, A27C, C31U
DNA 1: CAATCTGAATTCCGGTCTCCC
DNA 2: TGGTGGCTACGACGGGATT
B31: UAAGCGU (DNA:RNA)
RNA: B7 RNA with G25U, U26A, U27A, U29C
DNA 1: CAATCTGAATTCCGGTCTCCC
DNA 2: TGGTGGCTACGACGGGATT

These binders were tested against T1, RBFOX1 RRM RbFoxmut (Fox-RRM*) (assay: EMSA; HiTS-Eq, 1 nM pool, 10 min; buffer printed only for the single-RNA assays: 10 mM Tris pH 7.5, 150 mM NaCl, 3.4 mM EDTA, 0.001% NP-40, 30 C). Settings: tags: His6 N-terminal (pET28a); label: 5' 32P.
Procedure, shortened: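 Purified wild-type or mutant RbFox RRM at increasing concentrations was equilibrated with 1 nM of 5′-radiolabelled RNA carrying 7 randomized nucleotides for 10 min in 50 µL. Unbound RNA was separated by 8% native PAGE and sequenced. Relative association constants came from read-count changes of each RNA species compared with the control reaction, normalised to the cognate motif.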
B1 was tested, and the binding signal was 0.0939 KA relative to UGCAUGU. For B2, the binding signal was 0.132 KA relative to UGCAUGU. In the case of B3, the binding signal is reported as 0.234 KA relative to UGCAUGU. For B4, the binding signal was 0.137 KA relative to UGCAUGU. B5 was tested, and the binding signal was 0.173 KA relative to UGCAUGU. B6 was tested, and the binding signal was 0.0736 KA relative to UGCAUGU. B7 was tested, and the binding signal was 0.224 KA relative to UGCAUGU. In the case of B8, the binding signal is reported as 0.14 KA relative to UGCAUGU. With B9 the binding signal was 0.0888 KA relative to UGCAUGU. For B10, the binding signal was 0.101 KA relative to UGCAUGU. In the case of B11, the binding signal is reported as 0.0553 KA relative to UGCAUGU. With B12 the binding signal was 0.125 KA relative to UGCAUGU. In the case of B13, the binding signal is reported as 0.11 KA relative to UGCAUGU. For B14, the binding signal was 0.11 KA relative to UGCAUGU. In the case of B15, the binding signal is reported as 0.0586 KA relative to UGCAUGU. B16 was tested, and the binding signal was 0.0679 KA relative to UGCAUGU. In the case of B17, the binding signal is reported as 0.0906 KA relative to UGCAUGU. In the case of B18, the binding signal is reported as 0.0985 KA relative to UGCAUGU. With B19 the binding signal was 0.0604 KA relative to UGCAUGU. For B20, the binding signal was 0.0589 KA relative to UGCAUGU. With B21 the binding signal was 0.113 KA relative to UGCAUGU. B22 was tested, and the binding signal was 0.0736 KA relative to UGCAUGU. For B23, the binding signal was 0.14 KA relative to UGCAUGU. B24 was tested, and the binding signal was 0.0177 KA relative to UGCAUGU. For B25, the binding signal was 0.0415 KA relative to UGCAUGU. In the case of B26, the binding signal is reported as 0.111 KA relative to UGCAUGU. In the case of B27, the binding signal is reported as 0.0833 KA relative to UGCAUGU. With B28 the binding signal was 0.0738 KA relative to UGCAUGU. With B29 the binding signal was 0.05 KA relative to UGCAUGU. B30 was tested, and the binding signal was 0.0975 KA relative to UGCAUGU. For B31, the binding signal was 0.104 KA relative to UGCAUGU.

— publication PMC9911399, “Two distinct binding modes provide the RNA-binding protein RbFox with extraordinary sequence specificity”
